The supplement of paper PMC8728848
Some of the results follow.

Experiments:
Assay in all cases: glycan array binding signal (z-score within array); higher = stronger binding
Details in all cases: glycan notation: IUPAC condensed, linker removed; mutation: H84T
[1] = biological target: Fuc(a1-2)[GalNAc(a1-3)]Gal(b1-3)GlcNAc(b1-3)GalNAc
How it was run: (§1)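 From the Consortium for Functional Glycomics database, 3228 arrays were curated, keeping only those whose protein sequence was available. Binding is given as a within-array Z-score averaged across arrays sharing a protein sequence and across linkers. Negative Z-scores can be read as non-binding.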

[2] = biological target: Fuc(a1-2)[GalNAc(a1-3)]Gal(b1-3)GlcNAc(b1-6)GalNAc
How it was run: as §1

[3] = biological target: Fuc(a1-2)[GalNAc(a1-3)]Gal(b1-4)Glc
How it was run: as §1

[4] = biological target: Fuc(a1-2)[GalNAc(a1-3)]Gal(b1-4)GlcNAc
How it was run: as §1

[5] = biological target: Fuc(a1-2)[GalNAc(a1-3)]Gal(b1-4)GlcNAc(b1-2)Man
How it was run: as §1

[6] = biological target: Fuc(a1-2)[GalNAc(a1-3)]Gal(b1-4)GlcNAc(b1-2)Man(a1-3)[Fuc(a1-2)[GalNAc(a1-3)]Gal(b1-4)GlcNAc(b1-2)Man(a1-6)]Man(b1-4)GlcNAc(b1-4)GlcNAc
How it was run: as §1

[7] = biological target: Fuc(a1-2)[GalNAc(a1-3)]Gal(b1-4)GlcNAc(b1-2)Man(a1-3)[Fuc(a1-2)[GalNAc(a1-3)]Gal(b1-4)GlcNAc(b1-2)Man(a1-6)]Man(b1-4)GlcNAc(b1-4)[Fuc(a1-6)]GlcNAc
How it was run: as §1

[8] = biological target: Fuc(a1-2)[GalNAc(a1-3)]Gal(b1-4)GlcNAc(b1-3)Gal(b1-4)GlcNAc
How it was run: as §1

[9] = biological target: Fuc(a1-2)[GalNAc(a1-3)]Gal(b1-4)GlcNAc(b1-3)Gal(b1-4)GlcNAc(b1-3)Gal(b1-4)GlcNAc
How it was run: as §1

[10] = biological target: Fuc(a1-2)[GalNAc(a1-3)]Gal(b1-4)GlcNAc(b1-3)GalNAc
How it was run: as §1

[11] = biological target: Fuc(a1-2)[GalNAc(a1-3)]Gal(b1-4)GlcNAc(b1-3)[Fuc(a1-2)[GalNAc(a1-3)]Gal(b1-4)GlcNAc(b1-6)]GalNAc
How it was run: as §1

[12] = biological target: Fuc(a1-2)[GalNAc(a1-3)]Gal(b1-4)GlcNAc(b1-6)GalNAc
How it was run: as §1

[13] = biological target: Fuc(a1-2)[GalNAc(a1-3)]Gal(b1-4)[Fuc(a1-3)]GlcNAc
How it was run: as §1

[14] = biological target: Fuc(a1-2)[GalNAc(a1-3)]Gal(b1-4)[Fuc(a1-3)]GlcNAc(b1-3)GalNAc
How it was run: as §1

[15] = biological target: Fuc(a1-2)[GalNAc(a1-4)]Gal(b1-4)GlcNAc
How it was run: as §1

[16] = biological target: Fuc(a1-2)[GalNAc(b1-3)]Gal
How it was run: as §1

Fuc(a1-3)GlcNAc = biological target: Fuc(a1-3)GlcNAc
How it was run: as §1

[17] = biological target: Fuc(a1-3)[Gal(b1-4)]Glc6S
How it was run: as §1

[18] = biological target: Fuc(a1-3)[Gal(b1-4)]GlcNAc
How it was run: as §1

[19] = biological target: Fuc(a1-3)[Gal(b1-4)]GlcNAc(b1-2)Man
How it was run: as §1

[20] = biological target: Fuc(a1-3)[Gal(b1-4)]GlcNAc(b1-2)Man(a1-3)[Fuc(a1-3)[Gal(b1-4)]GlcNAc(b1-2)Man(a1-6)]Man(b1-4)GlcNAc(b1-4)GlcNAc
How it was run: as §1

[21] = biological target: Fuc(a1-3)[Gal(b1-4)]GlcNAc(b1-2)Man(a1-3)[Fuc(a1-3)[Gal(b1-4)]GlcNAc(b1-2)Man(a1-6)]Man(b1-4)GlcNAc(b1-4)[Fuc(a1-6)]GlcNAc
How it was run: as §1

[22] = biological target: Fuc(a1-3)[Gal(b1-4)]GlcNAc(b1-3)Gal(b1-3)[Fuc(a1-4)]GlcNAc
How it was run: as §1

[23] = biological target: Fuc(a1-3)[Gal(b1-4)]GlcNAc(b1-3)Gal(b1-4)[Fuc(a1-3)]GlcNAc
How it was run: as §1

[24] = biological target: Fuc(a1-3)[Gal(b1-4)]GlcNAc(b1-3)Gal(b1-4)[Fuc(a1-3)]GlcNAc(b1-3)Gal(b1-4)[Fuc(a1-3)]GlcNAc
How it was run: as §1

[25] = biological target: Fuc(a1-3)[Gal(b1-4)]GlcNAc(b1-3)GalNAc
How it was run: as §1

[26] = biological target: Fuc(a1-3)[Gal(b1-4)]GlcNAc(b1-6)GalNAc
How it was run: as §1

[27] = biological target: Fuc(a1-3)[Gal(b1-4)]GlcNAc(b1-6)[Gal(b1-3)GlcNAc(b1-3)]Gal(b1-4)Glc
How it was run: as §1

[28] = biological target: Fuc(a1-3)[Gal(b1-4)]GlcNAc6S
How it was run: as §1

[29] = biological target: Fuc(a1-3)[Gal3S(b1-4)]Glc
How it was run: as §1

[30] = biological target: Fuc(a1-3)[Gal3S(b1-4)]GlcNAc
How it was run: as §1

[31] = biological target: Fuc(a1-3)[Gal3S(b1-4)]GlcNAc6S
How it was run: as §1

[32] = biological target: Fuc(a1-3)[GalNAc(b1-4)]GlcNAc
How it was run: as §1

[33] = biological target: Fuc(a1-3)[GalNAc(b1-4)]GlcNAc6S
How it was run: as §1

Fuc(a1-4)GlcNAc = biological target: Fuc(a1-4)GlcNAc
How it was run: as §1

Fuc(b1-3)GlcNAc = biological target: Fuc(b1-3)GlcNAc
How it was run: as §1

Gal(a1-2)Gal = biological target: Gal(a1-2)Gal
How it was run: as §1

B1: Banana lectin (Musa acuminata) (protein)
chain: MNGAIKVGAWGGNGGSAFDMGPAYRIISVKIFSGDVVDGVDVTFTYYGKTETRHYGGSGGTPHEIVLQEGEYLVGMAGEVANYTGAVVLGKLGFSTNKKAYGPFGNTGGTPFSLPIAAGKISGFFGRGGKFLDAIGVYLEPLEHHHHHH
glycan array binding signal (z-score) [1]: -0.164 | glycan array binding signal (z-score) [2]: -0.177 | glycan array binding signal (z-score) [3]: -0.172 | glycan array binding signal (z-score) [4]: -0.183 | glycan array binding signal (z-score) [5]: -0.15 | glycan array binding signal (z-score) [6]: -0.086 | glycan array binding signal (z-score) [7]: 0.3 | glycan array binding signal (z-score) [8]: -0.197 | glycan array binding signal (z-score) [9]: -0.18 | glycan array binding signal (z-score) [10]: -0.189 | glycan array binding signal (z-score) [11]: -0.161 | glycan array binding signal (z-score) [12]: -0.147 | glycan array binding signal (z-score) [13]: -0.173 | glycan array binding signal (z-score) [14]: -0.18 | glycan array binding signal (z-score) [15]: -0.191 | glycan array binding signal (z-score) [16]: -0.195 | glycan array binding signal (z-score) (Fuc(a1-3)GlcNAc): -0.218 | glycan array binding signal (z-score) [17]: -0.158 | glycan array binding signal (z-score) [18]: -0.18 | glycan array binding signal (z-score) [19]: -0.189 | glycan array binding signal (z-score) [20]: -0.201 | glycan array binding signal (z-score) [21]: -0.115 | glycan array binding signal (z-score) [22]: -0.177 | glycan array binding signal (z-score) [23]: -0.061 | glycan array binding signal (z-score) [24]: -0.194 | glycan array binding signal (z-score) [25]: -0.17 | glycan array binding signal (z-score) [26]: -0.169 | glycan array binding signal (z-score) [27]: -0.214 | glycan array binding signal (z-score) [28]: -0.187 | glycan array binding signal (z-score) [29]: -0.158 | glycan array binding signal (z-score) [30]: -0.134 | glycan array binding signal (z-score) [31]: -0.197 | glycan array binding signal (z-score) [32]: -0.19 | glycan array binding signal (z-score) [33]: -0.204 | glycan array binding signal (z-score) (Fuc(a1-4)GlcNAc): -0.157 | glycan array binding signal (z-score) (Fuc(b1-3)GlcNAc): -0.189 | glycan array binding signal (z-score) (Gal(a1-2)Gal): -0.167
